Among all 50,000 compounds or so, about 800 (1.6%) showed an effect of 50% or more. This is one part of the list.

We go through 109 molecules from PubChem BioAssay AID1240 (Sanford-Burnham Center for Chemical Genomics, 2008).

This assay concerns the target Bcl-2-like protein 10 (Homo sapiens) (UniProt Q9HD36). As to the kind of experiment: TR3 peptide-Bcl-B binding displacers, biochemical primary FP assay, phenotype converters (AID 1240).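 Also: 0% = Bcl-B with tracer peptide and DMSO and 100% = tracer peptide lacking Bcl-B.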 Conditions: GST-Bcl-B / FITC-TR3 peptide fluorescence polarization; stronger effect = higher value; compound at 3.75 mg/L.
UniProt Q9HD36, sequence (Q9HD36 whole entry, looked up): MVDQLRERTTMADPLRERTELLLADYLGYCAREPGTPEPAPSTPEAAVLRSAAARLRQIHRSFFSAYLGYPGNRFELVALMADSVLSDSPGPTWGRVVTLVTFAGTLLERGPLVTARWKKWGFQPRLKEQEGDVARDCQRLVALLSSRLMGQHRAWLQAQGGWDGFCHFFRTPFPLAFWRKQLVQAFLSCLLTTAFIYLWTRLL
Regarding `CC1CN(CC(O)COc2ccccc2C(C)(C)C)CC(C)O1` (centres undefined), the displacement came out at 7.8%.

`CC(C)(C)c1csc(N/N=C/c2cccnc2)n1`: the displacement was -7.2%.

Take `c1csc(C2Nc3cccc4cccc(c34)N2)c1`: the displacement was found to be 32.9%.

Regarding `O=[N+]([O-])c1ccc(-n2ncnc2-c2cccc(Br)c2)c(Cl)c1`, the displacement turned out to be 15.1%.

On to `COc1ccccc1N1CCN(/N=C\c2ccc(N(C)C)cc2)CC1`, for which the displacement was -1%.

Regarding `Cc1cc(N2C(=O)NC(=O)/C(=C\c3ccc([N+](=O)[O-])o3)C2=O)ccc1Br`, the displacement was -14.2%.

For the molecule `Cc1ccc2nc(-c3ccc(NC(=O)/C=C\C(=O)O)cc3)sc2c1`, the displacement was determined as 6.1%.

Take `COc1ccc(NC(=O)C2CC(=O)N(CCc3ccccc3)C(=Nc3ccccc3)S2)cc1` (centres undefined): the displacement is -7.4%.

For the molecule `CN1C(=O)/C(=c2\sc3nc(-c4ccccc4)c(-c4ccccc4)n3c2=O)c2ccccc21`, the displacement was 6.9%.

On to `Cc1cc(I)ccc1S(=O)(=O)N1CCN(C)CC1`, for which the displacement was -7.4%.

Take `Cc1cc(N2C(=O)NC(=O)/C(=C\c3ccc(N4CCOCC4)o3)C2=O)ccc1Br`: the displacement was -33.9%.

In the case of `CCOC(=O)C(Cc1cc(C)c(CC(C(=O)OCC)C(=O)OCC)cc1C)C(=O)OCC`, the displacement is -8.7%.

With `O=C1/C(=C\c2ccc(-c3ccccc3[N+](=O)[O-])o2)SC(=S)N1C1CCS(=O)(=O)C1` (centres undefined), the displacement is 31.8%.

`N#CC1=C(N)SC(N)=C(C#N)C1c1cccc(Cl)c1`: the displacement is -31.8%.

In the case of `CCOC(=O)Oc1ccc2c(-c3ccccc3)cc(=O)oc2c1`, the displacement is 10.5%.

For the molecule `COc1ccc(C(=O)NCCCNc2ccc([N+](=O)[O-])cc2Cl)cc1OC`, the displacement came to 10.1%.

Turning to `COC(=O)c1cc(C(=O)Nc2cc(OC)ccc2OC)cc([N+](=O)[O-])c1`, the displacement is 12.7%.

In the case of `Cc1cccc(OCC(=O)Nc2ccccc2[N+](=O)[O-])c1C`, the displacement was -0.6%.

In the case of `Cc1cc(Cl)ccc1NC(=O)COc1ccc(Br)cc1`, the displacement is -0.6%.

With `N#C/C(=C\c1ccccc1C(F)(F)F)c1nn(CCO)c(N)c1C#N`, the displacement is -1.8%.

On to `O=C(COc1ccc(Cl)cc1)Nc1ccc2oc(-c3ccccc3F)nc2c1`, for which the displacement amounted to 6.6%.

In the case of `COc1ccc(/C=N/Nc2cc(OC)ncn2)cc1`, the displacement is -5.1%.

`CC(C)(C)c1ccc(/C=N/NC(=O)Cc2cccc3ccccc23)cc1`: the displacement was 15.7%.

Turning to `Cc1cc(N2CC(C)OC(C)C2)n2c(nc3ccccc32)c1C#N` (centres undefined), the displacement is -6%.

Regarding `COc1ccc(OC)c(S(=O)(=O)n2ccnc2C(C)C)c1`, the displacement came out at 1.6%.

For the molecule `COc1ccc(/C=C2/SC(=Nc3ccc(F)cc3)NC2=O)c(OC)c1`, the displacement turned out to be 11.6%.

Consider `COc1ccc(NC(=O)C(=O)NCc2ccc(C)cc2)cc1`, for which the displacement is -0.8%.

Consider `CC1CC(Nc2ccccc2)c2ccccc2N1C(=O)c1ccccc1` (centres undefined), for which the displacement was found to be 5.9%.

With `COC(=O)c1ccccc1NC(=O)CN(c1ccc(C)cc1)S(=O)(=O)c1ccc(F)cc1`, the displacement came out at 11.7%.

Regarding `CCOC(=O)c1sc2nccc(N(C)C)c2c1N`, the displacement was -24.6%.

Take `COc1ccccc1C1/C(=C(/O)c2ccccc2)C(=O)C(=O)N1c1cccc(Br)c1` (centres undefined): the displacement was -10.1%.

For `Cc1ccc(C=Nc2ccc3nc(-c4ccc(Cl)cc4Cl)[nH]c3c2)o1`, the displacement came to 13.4%.

Take `COC(=O)c1c(C)oc2ccc(OCc3ccc(Cl)cc3)cc12`: the displacement was 5.2%.

Take `Cc1cccc(C(=O)Nc2cccc(Cl)c2C)c1`: the displacement is -17.1%.

Take `CC1=NN(c2cccc(C(=O)O)c2)C(=O)/C1=C\c1ccc(-c2ccc3c(c2)COC3=O)o1`: the displacement was found to be 10%.

Take `COc1ccc(-c2cc(C(=O)N/N=C\c3ccc(C(C)C)cc3)[nH]n2)cc1`: the displacement was -7.9%.

Regarding `CC1(C)CC(=O)C2=C(C1)OC(N)=C(C#N)C2c1c2ccccc2cc2ccccc12` (centres undefined), the displacement was -8.3%.

As to `COc1ccc(CCN2C(=O)CC(N3CCN(c4ccc(Cl)cc4)CC3)C2=O)cc1OC` (centres undefined), the displacement was 1.2%.

With `O=S1(=O)N=C(N2CCN(Cc3ccccc3)CC2)c2ccccc21`, the displacement stood at 9.5%.

`CCOc1ccc(NC(=O)/C(=C/c2cccs2)NC(=O)c2cccs2)cc1`: the displacement was -12.6%.

`CN=C(NC)SC1CC(=O)N(c2ccccc2)C1=O` (centres undefined): the displacement is -6.7%.

As for `COc1ccc(N(CC(=O)NCc2ccccc2)S(C)(=O)=O)cc1Cl`, the displacement amounted to 0.5%.

With `Clc1ccc(-c2nc(-c3ccc(Br)cc3)no2)c(Cl)c1`, the displacement stood at 2.7%.

`O=C(O)CCC(=O)Nc1ccc(S(=O)(=O)N2CCCCCC2)cc1`: the displacement came to 3%.

Consider `CCCOc1ccc(C(=O)Nc2ccc(O)c(-c3nc4cc(C)c(C)cc4o3)c2)cc1`, for which the displacement came to 11.5%.

As for `COc1ccc(C(=O)Nc2ccncc2)cc1`, the displacement turned out to be 2.6%.

For the molecule `Nc1c(NCCCN2CCOCC2)c2ccccc2oc1=O`, the displacement is -4.2%.

For the molecule `Cc1cc(OCCN2CCCCC2)ccc1Cl`, the displacement was 5.2%.

`O=C(CN1C(=O)/C(=C\c2ccccc2Cl)SC1=S)Nc1cc([N+](=O)[O-])ccc1O`: the displacement was 33.3%.

Turning to `O=C(/C=C/c1cn(-c2ccccc2)nc1-c1cccs1)c1cccs1`, the displacement was determined as 9.4%.

For `NC(=O)c1ccccc1N=Cc1cc(Cl)cc(Cl)c1O`, the displacement is -7.2%.

For `Cc1ccc(S(=O)(=O)Nc2ccc(O)c(C)c2)cc1`, the displacement stood at 9.7%.

In the case of `C/C(=N\Nc1ncc(Br)cn1)c1cccc([N+](=O)[O-])c1`, the displacement is -11.6%.

For the molecule `O=C(Nc1cc(Cl)cc(Cl)c1)S(=O)(=O)c1ccccc1`, the displacement was found to be 10.2%.

Take `S=C(NNc1nc2ccccc2s1)NC1CCCCC1`: the displacement amounted to 13.7%.

Regarding `O=C(COc1cccc(Cl)c1)N=Nc1c(O)[nH]c(=O)[nH]c1=O`, the displacement came out at 6.3%.

On to `O=C(O)c1cc(O)ccc1NC(=O)C(c1ccccc1)c1ccccc1`, for which the displacement came out at 10.4%.

As for `O=C(O)c1cccc(N2C(=O)c3ccc4c5c(ccc(c35)C2=O)CC4)c1`, the displacement amounted to 45.4%.

`CN1CCN(C(=O)c2ccccc2NC(=O)c2ccc(Cl)cc2Cl)CC1`: the displacement stood at 5.1%.

Take `COc1ccc(OC)c(NC(=O)c2cnccn2)c1`: the displacement came out at 4.8%.

As to `COc1cccc(-c2nc3cc(NC(=O)c4cc5ccccc5o4)ccc3o2)c1`, the displacement is -8.8%.

On to `O=C1NC(=Nc2ccc(F)cc2)S/C1=C\c1cccs1`, for which the displacement was found to be 8.3%.

`O=C(Nc1cccc(NC(=O)c2ccc(Cl)cc2Cl)c1)c1ccccc1F`: the displacement was 10%.

As for `Cn1c(SC(c2ccccc2)c2ccccc2)nc2ccccc21`, the displacement was -15.4%.

As for `CC(C)(C)NC(=O)c1sc2ccccc2c1Cl`, the displacement is -7.2%.

For the molecule `CCOCCOC(=O)c1cccc(NC(=O)/C=C/c2ccc(Cl)cc2Cl)c1`, the displacement came out at 4.7%.

Turning to `CN1C(=O)/C(=C\c2ccccc2Sc2ccc(Cl)cc2)SC1=S`, the displacement is -6.2%.

For the molecule `COc1ccc([N+](=O)[O-])cc1-c1ccc(/C=c2/sc3nc4cc(C)c(C)cc4n3c2=O)o1`, the displacement was -6%.

Turning to `C/C(=N\NS(=O)(=O)c1ccccc1)c1cccc(Br)c1`, the displacement came to 2.9%.

As to `Cc1ccccc1NC(=O)C1CCC(=O)N1` (centres undefined), the displacement is 5.1%.

For `CSc1ccc(S(=O)(=O)N(CC(=O)Nc2ccc(C)cc2)c2ccc(C)cc2)cc1`, the displacement amounted to 13.6%.

`C=CCN1C(=O)/C(=C\c2ccc(OCc3ccccc3Cl)cc2)SC1=S`: the displacement was 95.7%.

As to `CCOC(=O)CC(=O)Nc1ccc(C(=O)OC)cc1`, the displacement turned out to be 9.8%.

Take `O=C(CC1S/C(=N\N=C2/CCCc3ccccc32)NC1=O)Nc1ccccc1C(F)(F)F` (centres undefined): the displacement was 11.6%.

In the case of `CCCOc1ccc(C(=O)Nc2scc(-c3ccc(C)cc3)c2C(=O)OCC)cc1`, the displacement turned out to be 25.6%.

For the molecule `O=S(=O)(O)c1cc(OS(=O)(=O)c2ccccc2)cc2ccccc12`, the displacement was -3%.

As for `O=C(CNC(=O)c1ccc(Br)cc1)c1ccc(-c2ccccc2)cc1`, the displacement was found to be 7.2%.

Regarding `CCOC(=O)CCC(NC(=O)c1ccc(NCN2C(=O)c3ccccc3C2=O)cc1)C(=O)OCC` (centres undefined), the displacement was -10.4%.

With `O=C(/C=C/c1ccc(Cl)cc1)Nc1ccc2c(c1)OCO2`, the displacement is 11.4%.

With `COC(=O)C1=C(C)N(C)C(C)=C(C(=O)OC)C1c1cccc(F)c1`, the displacement was -8.3%.

Consider `O=C1NC(c2ccccc2OCc2ccccc2)Nc2ccccc21` (centres undefined), for which the displacement was determined as 11.4%.

For the molecule `Cc1nn(-c2ccc(C(F)(F)F)cn2)c(C)c1Oc1ccccc1O`, the displacement turned out to be 0.4%.

For the molecule `O=C(Nc1nc(-c2ccc(Cl)cc2)cs1)C1CCCC1`, the displacement was -8.8%.

Turning to `CCOC(=O)C1=C(C)N(CCOC)C(=O)/C1=C\c1ccccc1[N+](=O)[O-]`, the displacement is 3.2%.

In the case of `COc1ccc(C)cc1NC(=O)c1ccc(-n2cnnn2)cc1`, the displacement is -14.6%.

As to `O=C(NC(C(=O)Nc1nccs1)C12CC3CC(CC(C3)C1)C2)c1ccccc1` (centres undefined), the displacement is -8.5%.

Turning to `CC1CCCN(CC(O)COc2ccc(C34CC5CC(CC(C5)C3)C4)cc2)C1` (centres undefined), the displacement was -14.4%.

Turning to `CCCCOc1ccccc1NC(=O)c1cc(SC)ccc1Cl`, the displacement amounted to 0.2%.

For the molecule `COc1ccc(OC)c(C2NC(=O)NC(C)=C2C(=O)Nc2ccc(C)c(Cl)c2)c1` (centres undefined), the displacement was -3.1%.

On to `O=C(Nc1ccc2nc(SCCOc3ccccc3)sc2c1)c1ccccc1Cl`, for which the displacement is -3.4%.

Regarding `CCC(=O)Nc1ccc(NC(=O)c2ccc(OCC(C)C)cc2)cc1`, the displacement is 9.6%.

`O=C(O)c1ccccc1C(=O)Nc1ccc2nc(SCc3nc4ccccc4[nH]3)sc2c1`: the displacement was -13.4%.

For the molecule `O=C(O)Cn1c(SCc2cccc3ccccc23)nc2ccccc21`, the displacement is 3%.

Take `CC1(C(=O)NCc2cccs2)CC1(Br)Br` (centres undefined): the displacement is -9.2%.

With `COc1ccc(OC)c(N(CC(=O)Nc2ccc(I)cc2)S(C)(=O)=O)c1`, the displacement came out at 13.1%.

Turning to `Cc1n[nH]c(=S)n(/N=C/c2ccco2)c1=O`, the displacement is -5.1%.

Take `CCn1c(=O)c2c(n3c(=S)[nH]nc13)-c1ccccc1CC21CCCCC1`: the displacement is -13.3%.

Turning to `COc1ccc(CSc2nc3ccccc3s2)cc1`, the displacement was determined as 11.5%.

As for `CN(C)c1ccc(/C=C/c2cc(C(F)(F)F)[nH]c(=O)n2)cc1[N+](=O)[O-]`, the displacement amounted to 14.7%.

In the case of `COCCOC(=O)c1ccc(NC(=O)COc2ccc(C)c(C)c2)cc1`, the displacement is -4.5%.

`O=C(COc1ccccc1Cl)NCc1ccc2c(c1)OCO2`: the displacement is -4%.

Consider `CCOC(=O)Cn1c(-c2nonc2N)nc2ccccc21`, for which the displacement was -5.3%.

Regarding `CN(C)CCOC(=O)CCc1cc(C(C)(C)C)c(O)c(C(C)(C)C)c1`, the displacement was -13.5%.

Consider `O=C1OC(/C=C/c2ccccc2)=NC/1=C/c1ccccc1`, for which the displacement is 13.6%.

Take `CCOC(=O)C1=C(c2ccccc2)NC(=S)NC1c1ccc(OC(C)C)cc1` (centres undefined): the displacement worked out at 10.7%.

Turning to `CCOc1ccccc1NC(=O)C(=O)N/N=C/c1ccc(C(C)(C)C)cc1`, the displacement was -5.1%.

For `COc1ccccc1NC(=O)CCN1C(=O)S/C(=C/c2ccc(OC)c(OC)c2)C1=O`, the displacement worked out at 34.6%.

As to `CCN(CC)C(=O)CSc1nc(-c2ccccc2)c(-c2ccccc2)o1`, the displacement is 6.6%.

Turning to `Oc1ccccc1/C=N/Nc1cc(N2CCCCC2)nc(N2CCCCC2)n1`, the displacement was -0.9%.
